Results: PubChem BioAssay AID463173 (ICCB-Longwood Screening Facility, Harvard Medical School, 2010)
Screen size: about 52,000 compounds; about 4,300 (8.3%) were called active. No stated cut-off is given here; in the data, active means survival mostly below about 52% (no sharp cut-off); inactive means mostly above about 56%. The list shows a part of the results.

tested on: DeltatarO mutant; experiment: growth inhibition of S. aureus wild type versus tarO mutant, primary screen, teichoic acid synthesis inhibitors, RN4220, OD600 (AID 463173); conditions: OD600, 18 h, stronger effect = lower value, screened at 18.75 µg/mL (by protocol)

Q: With COc1cc2c(=O)c(S(=O)(=O)c3ccc(F)cc3)cn(Cc3ccccc3C)c2cc1OC as the molecule, how does the survival read?
A: inactive: 55%

Q: With Cc1ccc(-n2cc(-c3ccccc3)c3c(NC4CCCC4)ncnc32)cc1 as the molecule, how does the survival read?
A: inactive: 74%

Q: How did the survival turn out when COc1cc(OC)c(OC)cc1CNCCSc1nnnn1-c1ccccc1 was run?
A: inactive: 61%

Q: For Cc1cccc(N(C)C(=O)CN2C(=O)COc3ccc(S(=O)(=O)N4CCCCCC4)cc32)c1, which survival is on record?
A: inactive: 89%

Q: For CCN(Cc1ccccc1)C(=O)C1CCN(c2ncnc3c2nc2n3CCCCC2)CC1, which survival is on record?
A: inactive: 90%

Q: With COc1cccc(CNC(=O)c2cc3cccc4c3n2CC(C)S4)c1OC (stereo not given) as the molecule, how does the survival read?
A: inactive: 84%

Q: How did the survival turn out when CCCNC(=O)c1cc2nc(-c3ccc(Br)cc3)cc(C(F)(F)F)n2n1 was run?
A: active: 51%

Q: COc1ccc(Br)cc1CNC(=O)c1cc(=O)[nH]c2ccc(S(=O)(=O)N3CCCC3)cc12 was tested. Which survival did it give?
A: inactive: 81%

Q: CCCCn1c(SCC(=O)OC)nc2ccccc2c1=O was tested. Which survival did it give?
A: inactive: 86%

Q: How did the survival turn out when CCOc1ccc(-n2c(SCc3nc(-c4ccc(OC)cc4)no3)nnc2-c2ccncc2)cc1 was run?
A: inactive: 62%

Q: Which survival does the source give for CCOc1cccc2cc(-c3nc4sc5c(c4c(=O)[nH]3)CCC(C(C)(C)C)C5)c(=O)oc12 (stereo not given) here?
A: inactive: 79%

Q: For COc1ccc(Br)cc1CNC(=O)c1cc2ccccn2n1, which survival is on record?
A: inactive: 77%

Q: COc1cc(C2c3c(oc4cc(C)c(C)cc4c3=O)C(=O)N2CCCN2CCOCC2)ccc1O (stereo not given) was tested. Which survival did it give?
A: inactive: 77%

Q: For CCOC(=O)c1cc(S(=O)(=O)Nc2ccc(Br)c(C)c2)[nH]n1, which survival is on record?
A: inactive: 76%

Q: Which survival does the source give for Cc1ccc2c(c1)c1c(c(=O)n(-c3cccc(Cl)c3)c(=O)n1CC(=O)N1CCCC1)n2C here?
A: inactive: 77%

Q: Which survival does the source give for Cc1c(C(=O)N2CCC(c3nc4ccccc4s3)CC2)oc2cc(Br)ccc12 here?
A: inactive: 107%

Q: Cc1n[nH]c(C)c1N1C(=O)c2cccc3c(N4CCCCC4)ccc(c23)C1=O was tested. Which survival did it give?
A: inactive: 83%

Q: How did the survival turn out when CC1CCN(C(=O)CSCC(=O)O)CC1 was run?
A: inactive: 91%

Q: With Cc1ccc2c(=O)c(C(=O)c3ccccc3)cn(CC(=O)Nc3ccc4c(c3)OCCO4)c2n1 as the molecule, how does the survival read?
A: inactive: 80%

Q: Cn1c(=O)c2sccc2n2c(CCC(=O)NCc3ccc(F)cc3)nnc12 was tested. Which survival did it give?
A: inactive: 71%

Q: Which survival does the source give for COc1ccc(CCNC(=O)CCn2c(=O)c3ccccc3n(CC(=O)Nc3ccccc3F)c2=O)cc1OC here?
A: inactive: 106%

Q: With CCOc1ccccc1NC(=O)Cn1c(=O)n(CCC(C)C)c(=O)c2cccnc21 as the molecule, how does the survival read?
A: inactive: 89%

Q: For O=C(COC(=O)c1cc(-c2cccs2)nc2ccccc12)c1ccc(Br)cc1, which survival is on record?
A: inactive: 127%

Q: How did the survival turn out when Cc1nc2ccccc2n1CCc1nc2c3ccccc3nc(SCc3cccc(F)c3)n2n1 was run?
A: inactive: 95%

Q: With CC1=C(C(=O)Nc2ccccc2)C(c2ccccc2C)n2ncc(C(=O)Nc3ccccc3)c2N1 (stereo not given) as the molecule, how does the survival read?
A: inactive: 124%

Q: With Cc1cc(C)cc(OCCn2c(C3CC(=O)N(c4ccccc4Cl)C3)nc3ccccc32)c1 (stereo not given) as the molecule, how does the survival read?
A: inactive: 85%

Q: CC(=O)c1ccc(N2CCN(S(=O)(=O)c3c(C)nc4sc(C)cn4c3=O)CC2)cc1 was tested. Which survival did it give?
A: inactive: 75%

Q: Which survival does the source give for CCOC(=O)c1[nH]c(C)c(CCC(=O)Nc2c(C)cc(C)cc2C)c1C here?
A: inactive: 117%

Q: Which survival does the source give for CCCn1c(SCc2nc(-c3ccccc3C)no2)nnc1-c1ccc(Cl)cc1 here?
A: inactive: 47%

Q: How did the survival turn out when COc1ccc(N2C(=O)CSC23C(=O)N(CC(=O)NC2CCCCC2)c2ccccc23)cc1 (stereo not given) was run?
A: inactive: 83%

Q: CCc1nn(CC(=O)N2CCN(c3cccc(C)c3C)CC2)c(=O)c2cc3occc3n12 was tested. Which survival did it give?
A: inactive: 77%

Q: How did the survival turn out when Cc1cccc(N2CCN(C(=O)C3CCC(CNS(=O)(=O)c4ccc(Br)s4)CC3)CC2)c1C (stereo not given) was run?
A: inactive: 84%

Q: For Cc1cc2cccc(C)c2nc1SCC(=O)O, which survival is on record?
A: inactive: 80%

Q: With COc1ccc(Cn2c(C(=O)O)c(CNCc3cccc(OC)c3)c3ccc(C)cc32)cc1 as the molecule, how does the survival read?
A: inactive: 74%

Q: COC(=O)c1cnn(-c2ccc(C(=O)Nc3cccc(C(C)=O)c3)cc2)c1N was tested. Which survival did it give?
A: inactive: 70%

Q: How did the survival turn out when CCOc1ccc(NC(=O)CC2C(=O)N(c3ccccc3)C(=O)N2CCc2ccc(OC)cc2)cc1 (stereo not given) was run?
A: inactive: 59%

Q: How did the survival turn out when Cc1ccc(NC(=O)Cn2nc(C)c3nn(-c4ccc(Cl)cc4)c(C)c3c2=O)cc1C was run?
A: inactive: 75%

Q: With Cn1c(=O)oc2cc(S(=O)(=O)N3CCC(C(=O)NCc4ccccc4Cl)CC3)ccc21 as the molecule, how does the survival read?
A: inactive: 125%

Q: For O=C1CN(C(=O)Cc2ccc(F)cc2)C(c2ccccc2)c2cc(Br)ccc2N1 (stereo not given), which survival is on record?
A: inactive: 58%

Q: How did the survival turn out when CC1(C)C=C2C(=NN(c3ccccc3)C(N)=C2C#N)CO1 was run?
A: inactive: 73%

Q: With Cc1cc(S(=O)(=O)N2CCCC2)ccc1-n1cnnn1 as the molecule, how does the survival read?
A: inactive: 113%

Q: With Cn1c(NCCCCO)nc2c1c(=O)n(Cc1ccc(Cl)cc1)c(=O)n2C as the molecule, how does the survival read?
A: inactive: 108%

Q: Which survival does the source give for COc1ccc(NC(=O)Cn2c(=O)n(CCCC(=O)NCc3ccccc3OC)c(=O)c3ccccc32)cc1Cl here?
A: inactive: 118%

Q: How did the survival turn out when COc1cccc(NC(=O)CCS(=O)(=O)c2ccc3c(c2)oc(=O)n3C)c1 was run?
A: inactive: 89%

Q: With O=C(Cn1cc(S(=O)(=O)Cc2ccccc2Cl)c2ccccc21)NCc1ccccc1Cl as the molecule, how does the survival read?
A: inactive: 99%

Q: How did the survival turn out when CCc1nnc(NC(=O)c2nc(S(=O)(=O)Cc3cccc(C)c3)ncc2Cl)s1 was run?
A: active: 31%

Q: With CCOC(=O)N1CCN(C(=O)Cc2cccs2)CC1 as the molecule, how does the survival read?
A: inactive: 67%

Q: CCc1nn(CC(=O)NC(C)CCc2ccccc2)c(=O)c2cc3cc(F)ccc3n12 (stereo not given) was tested. Which survival did it give?
A: inactive: 92%

Q: How did the survival turn out when CCCCn1cc(S(=O)(=O)c2ccc(C)c(C)c2)c(=O)c2cc(F)c(N3CCN(C)CC3)cc21 was run?
A: inactive: 101%

Q: How did the survival turn out when NC(=O)CSc1oc(-c2ccco2)nc1S(=O)(=O)c1ccc(Br)cc1 was run?
A: inactive: 73%

Q: Which survival does the source give for Cn1c(CN2CCCCC2)nc2cc(NC(=O)c3cccc(Br)c3)ccc21 here?
A: inactive: 93%

Q: Which survival does the source give for CCn1cc(C(=O)NCCCOC(C)C)c(=O)c2cc(S(=O)(=O)N3CCc4ccccc4C3)ccc21 here?
A: inactive: 119%

Q: For O=C(CN1C(=O)CCSc2ccc(S(=O)(=O)N3CCCC3)cc21)Nc1ccccc1, which survival is on record?
A: inactive: 87%

Q: With CCC(C(=O)Nc1ccccc1C(=O)OC)n1c(C)c2cnn(-c3ccccc3)c(=O)c2c1C (stereo not given) as the molecule, how does the survival read?
A: inactive: 76%

Q: For CCC(Oc1ccccc1)C(=O)Nc1ccc(O)c(-c2nc3cc(C)ccc3o2)c1 (stereo not given), which survival is on record?
A: inactive: 50%
